# Results taken from the supplement of paper PMC11417369.
# ± gives the standard deviation of the averaged measurements. The list shows a part of the results.
# System: PfAP2-EXP AP2 domain (GST-tagged)
# Assay: gcPBM binding intensity (ln(normalized median fluorescence intensity)); higher = stronger DNA binding
# In short: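 The highest Masliner-normalised natural-log median intensity across replicate spots of either probe orientation is reported as binding intensity. GST-tagged P. falciparum DNA-binding domains expressed in E. coli were applied for 1 h to an Agilent 4 × 180k array of primer-extended double-stranded 36-bp intergenic genomic probes plus negative controls, and bound protein was detected with Alexa488 anti-GST antibody and scanned at 488 nm.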
row,Sequence,gcPBM binding intensity (ln)
1,TTCTTTAAAATATTATGTACACATTGCGAACAGTTT [XGTACX_site5418],8.97 ± 0.3
2,TATATATATATATATTGTACTTATGTTTATATTCAT [XGTACX_site6258],10.1 ± 0.2
3,ATATATATTTATGTATCACACACAAAAAAAAAAAAT [CACACA_site7973],8.4 ± 0.54
4,AGTTTATTTATATACACACACATATAAATATTATAG [CACACA_site6522],8.55 ± 0.59
5,ATATAGACACACACATGTACATATGCCAACGTGATA [XGTACX_site3828],8.62 ± 0.41
6,ATAAACTGAGTGGTTACACACAAAACCAATAACTTT [CACACA_site7601],8.54 ± 0.46
7,ACTATATAATATAATATATTATAATATATTATATTA [GTGCAC_negctrl_site140],8.21 ± 0.32
8,TTCTTAAAATATGAAAGTACATAGGCATTATATATT [XGTACX_site8400],8.4 ± 0.32
9,TTATAATATTCATAAGGTACAGTTTATATATGTTAT [XGTACX_site8442],8.47 ± 0.4
10,TTGAGTTGTATAAAAAGTACAAGGTTTTAACTAAAT [XGTACX_site1447],8.55 ± 0.37
11,AATAATCATGATCAAAGTACGTATGATTAAAAAAAA [XGTACX_site4916],8.62 ± 0.48
12,TATGACCTTAGTAATTGTACACAAACATATTAATAT [XGTACX_site3340],8.59 ± 0.45
13,GAGTATATGATATATATATATATATAAAAAAAAAAA [GTGCAC_negctrl_site99],8.62 ± 0.47
14,TATATGTAAATGGACACACACATATATATATATATA [CACACA_site3659],10.1 ± 0.36
15,CGTATATCACCAACTAGTACATATAAATAAATAAAT [XGTACX_site8837],8.79 ± 0.39
16,TGGTATATTATTTTTTGTACACATAAATGAAACATT [XGTACX_site5345],8.62 ± 0.27
17,ATATAGATTCGACACACACACAAAAAAAAAAAAAAA [CACACA_site7677],8.28 ± 0.59
18,GTACCTATTTCATACACACACACACGCAAACAAACA [CACACA_site6590],9.01 ± 0.34
19,ATATATATAATAAACACACACATATACATAGATGTA [CACACA_site5841],8.54 ± 0.29
20,ATATATATATATATATGTACATATTATTATTTTGAT [XGTACX_site4752],10.1 ± 0.38
21,GTATATGTACTATACGCACACACACCCACATATATA [CACACA_site9062],8.86 ± 0.39
22,ATATATATTATATGCACACTAATAAGACTATTTAAA [CACACA_site3554],8.51 ± 0.099
23,TTATAACTTTTGAGCACACACAAGCATATAAATATA [CACACA_site6933],8.44 ± 0.39

row,Sequence,gcPBM binding intensity (ln)
1,TTGTACATCTTTTGCACACGTAATGTTATTATAATA [CACACA_site1258],8.955 ± 0.064
2,AAATACTGTAAAAAAGCATGCCACTAATAATAATTA [TGCATGCA_site759],8.93 ± 0.71
3,TCATTTTTTTGTTTGGTGCGACTTGAAAATTTGATT,8.78 ± 0.28
4,TGTGTGTGTATATGTGTGCACATATAAAATAGAAGA [GTGCAC_site9714],9.12 ± 0.29
5,ATATGTGTTATTTATACATGCAGAAGAATATCTATT [TGCATGCA_site828],9.06 ± 0.35
6,ACATATATATAATATATATATCATCATATTTTCTTA [CACACA_negctrl_site853],8.27 ± 0.39
7,ACCTTTGTAGTTGGTCCACACACATATATGGAAGAA [CACACA_site8351],8.9 ± 0.32
8,CATACATTTAAAAAGTGTACGTATATGAAAAAAGGA [XGTACX_site6512],8.88 ± 0.34
9,CTCAATATTATTACTACACACAAATTAAAATTTTCC [CACACA_site4203],8.52 ± 0.35
10,AGAGAATAAATATAAAGTACATATATAAATATATAT [XGTACX_site5055],8.29 ± 0.26
11,GTATATAAAAATTCATGTACATATTATTATTTTTAA [XGTACX_site658],8.52 ± 0.3
12,ACATATACAAAACACACACACAACGTTTTAATAAAT [CACACA_site1979],8.72 ± 0.69
13,ATGTTATAAATCTTAATATATATATGCAAAAGAGAA [XGTACX_negctrl_site521],8.81 ± 0.42
14,GATCCATTATTGATCCGTACTTATTCATGTTATATA [XGTACX_site5946],8.84 ± 0.36
15,TATATATGTATATATACACACAACGGTTATAAATAT [CACACA_site1128],8.7 ± 0.44
16,TATATATATATATGTATGCACTTTAATTTTATAAGG,10.1 ± 0.4
17,TGTTATAAGATTTATGTACACACATATACACCCCTC [CACACA_site8141],9.14 ± 0.34
18,AATATAAATAAAAACACACACACACCGATATATATA [CACACA_site5283],8.86 ± 0.4
19,AAGATTAGGTTAATTAGTACTTATTATATTGTAATG [XGTACX_site3653],8.28 ± 0.51
20,AACATTGATAAATATAAACACACGAAAACAGACATA [CACACA_site490],9.02 ± 0.57
21,GAAACAATTTGATATTGTACATAAATAAATAAAAAC [XGTACX_site8869],8.9 ± 0.33
22,CATATTATTATTTTGGTGCATACTTATATATATTTT,8.75 ± 0.31
